Test results reported in article PMC3416746 (Cytoskeleton (Hoboken, N.J.), 2012).

B1: full-length Bni1 (natural protein)
chain: not shown
B2: full-length Bnr1 (natural protein)
chain: not shown

Molecular target: the molecule itself
Assay: hydrodynamic analysis

| Protein | stoichiometry N |
| --- | --- |
| B1 | 2 |
| B2 | 2 |
